Test results as given in PubChem BioAssay AID588579 (National Center for Advancing Translational Sciences (NCATS), 2011).
Values joined by “and” are separate entries in the source; they are usually repeats but may differ in a detail not shown here. Identical values can stand only once. The campaign covered roughly 400,000 compounds. About 2,200 (0.55%) were called active. Inconclusive means that the source gave no clear call. Such entries were picked first, then a sample of the others. Calls come from the whole dose curve; as a rule, active = well fitted inhibition curve with a large enough effect; inconclusive = small, poorly fitted or top-dose-only effect, or another doubt; inactive = no such curve, though single readings can be large or run the other way. Where the call is inconclusive, the potency comes from a doubtful curve fit. Some structures have more than one record in an assay (separate samples or runs), and their calls can disagree.

Biological target: DNA polymerase kappa (Homo sapiens) (UniProt Q9UBT6)
Test: qHTS for Inhibitors of Polymerase Kappa
Conditions: purified Pol kappa, fluorescent DNA synthesis assay, 10 min; series mostly up to 107 µM; activity, negative = inhibition: at the top concentration
Summary of the method: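 10 nM Pol kappa preincubated 15 min at room temperature with compounds, then reaction started with substrate at 50 nM final. Fluorescence read kinetically at 0 and 10 min; buffer-only wells served as negative control.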
% is set by controls: 0 for no effect and ±100 for the full control effect; potency is the fitted concentration of half-maximal effect; tags give direction and shape of the fitted curve.

UniProt Q9UBT6, sequence (Q9UBT6 whole entry, looked up): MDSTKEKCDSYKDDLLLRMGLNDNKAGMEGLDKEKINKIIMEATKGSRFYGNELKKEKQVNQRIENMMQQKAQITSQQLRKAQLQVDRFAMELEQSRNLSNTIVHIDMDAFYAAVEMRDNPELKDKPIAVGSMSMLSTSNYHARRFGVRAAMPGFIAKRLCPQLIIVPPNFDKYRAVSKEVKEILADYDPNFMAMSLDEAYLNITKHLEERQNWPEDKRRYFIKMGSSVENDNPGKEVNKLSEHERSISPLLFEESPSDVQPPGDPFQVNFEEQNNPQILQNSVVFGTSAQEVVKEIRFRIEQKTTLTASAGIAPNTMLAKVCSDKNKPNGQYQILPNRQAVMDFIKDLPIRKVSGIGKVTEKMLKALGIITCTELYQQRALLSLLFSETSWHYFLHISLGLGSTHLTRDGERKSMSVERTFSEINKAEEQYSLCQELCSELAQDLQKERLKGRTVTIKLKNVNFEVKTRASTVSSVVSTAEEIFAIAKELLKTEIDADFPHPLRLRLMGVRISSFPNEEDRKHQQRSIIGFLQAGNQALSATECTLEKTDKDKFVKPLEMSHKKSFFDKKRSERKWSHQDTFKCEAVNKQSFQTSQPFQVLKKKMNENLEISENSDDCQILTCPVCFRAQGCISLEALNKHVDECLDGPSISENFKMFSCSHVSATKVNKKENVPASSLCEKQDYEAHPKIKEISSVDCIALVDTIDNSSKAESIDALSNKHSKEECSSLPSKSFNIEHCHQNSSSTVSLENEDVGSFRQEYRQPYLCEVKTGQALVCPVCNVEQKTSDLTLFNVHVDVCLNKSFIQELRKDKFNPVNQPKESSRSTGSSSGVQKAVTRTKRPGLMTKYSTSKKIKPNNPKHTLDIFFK

Potency, inconclusive:
CC1(C)CC(N=c2cc(-c3ccccc3)oc3ccc(Cl)cc23)CC(C)(C)N1 79.4 µM [inhibitor, partial curve, poor fit], Clc1ccc(CN2CCSCC2)c(Cl)c1 89.1 µM [inhibitor, single point], O=C(Nc1nc(-c2ccco2)c(-c2ccco2)s1)C1CCC1 89.1 µM [inhibitor, single point], COc1cc(/C=N/NC(=O)c2[nH]nc3c2CCc2ccccc2-3)ccc1O 31.6 µM [inhibitor, partial curve, poor fit], CC1CCN(C2=NN3C(=N)/C(=C\c4ccc(OC(=O)c5ccco5)cc4)C(=O)N=C3S2)CC1 79.4 µM [inhibitor, single point], O=C(/C=C/c1ccco1)Nc1sc2c(c1C(=O)O)CCC2 89.1 µM [inhibitor, single point], COC(=O)c1ccc(Cn2c(O)c(N=NC(N)=S)c3ccccc32)o1 89.1 µM [inhibitor, partial curve, poor fit], O=C(NC(=S)Nc1ccccc1C(=O)O)c1ccc(-c2ccc(Br)cc2)o1 79.4 µM [inhibitor, partial curve, poor fit], O=C(/C=C/c1ccc(F)cc1)N1CCN(S(=O)(=O)/C=C/c2ccccc2)CC1 89.1 µM [inhibitor, single point], COc1cc(/C=C2/C(=N)N3N=C(CC(=O)N4CCOCC4)SC3=NC2=O)ccc1OCc1ccc(F)cc1 89.1 µM [inhibitor, single point], Nc1ccc(C(=O)N2CCN(S(=O)(=O)c3ccc(Cl)cc3)CC2)cc1[N+](=O)[O-] 25.1 µM [inhibitor, partial curve, poor fit], O=S(=O)(Cc1ccc(Cl)cc1Cl)c1ccc(Cl)cc1 100 µM [inhibitor, partial curve, poor fit], Cc1cccc(C(=O)N/N=C/c2ccoc2)c1 100 µM [inhibitor, single point], CCCN1CCN(C(=O)Cn2ncc3ccccc32)CC1 89.1 µM [inhibitor, single point], O=C(O)CSc1cc(C(=O)c2cc(F)ccc2O)cn2c(=O)c3c(-c4ccccc4)csc3nc12 89.1 µM [inhibitor, single point], COc1ccc(C2CCN(Cc3cccnc3)CC2O)cc1 (stereo not given) 89.1 µM [inhibitor, partial curve, poor fit], CCOc1ccc(S(=O)(=O)NCCSCc2ccco2)cc1 79.4 µM [inhibitor, single point], CC(=O)c1ccc[n+](C(C)CCC(C)[n+]2cccc(C(C)=O)c2)c1 (stereo not given) 56.2 µM [inhibitor, partial curve, poor fit], CCN(CC)c1ccc(/C=C/c2sc3ccccc3[n+]2CCCCI)cc1 56.2 µM [inhibitor, partial curve, poor fit], COc1ccc(NC(=O)COC(=O)c2cc3c(s2)CCC3)cc1 89.1 µM [inhibitor, single point], Cc1ccc(C(=O)CSC2=C(C#N)C(c3ccco3)CC(=O)N2)c(C)c1 (stereo not given) 89.1 µM [inhibitor, partial curve, poor fit], CCN(CC(=O)Nc1c(F)cccc1F)C(=O)C(C)SCc1nc2sc(C)c(C)c2c(=O)[nH]1 (stereo not given) 89.1 µM [inhibitor, single point], Cc1cc(-c2nnc(SCC(=O)Nc3nc(-c4ccccc4)cs3)o2)no1 89.1 µM [inhibitor, partial curve, poor fit], COc1cc2c(NC3CCN(C)CC3)nc(N3CCCCC3)nc2cc1OCCCN(C)C 79.4 µM [inhibitor, partial curve, poor fit], Cc1c(C)c2c(c(C)c1O)CCC(C)(CCCC(C)CCCC(C)CCCC(C)C)O2 (stereo not given) 11.2 µM [inhibitor, partial curve], O=C(NN=C1CCCC1)c1cc(O)cc(O)c1 100 µM [inhibitor, single point], Cc1cc(C)c2nc(C)cc(N/N=C/c3ccc(O)cc3)c2c1 56.2 µM [inhibitor, partial curve], Cc1nnc(SCC(=O)Nc2ccc(Br)cc2)n(N)c1=O 79.4 µM [inhibitor, partial curve], O=[N+]([O-])c1cc(Cl)cc(/C=N/NC(=S)Nc2ccc(S(=O)(=O)N3CCOCC3)cc2)c1O 89.1 µM [inhibitor, partial curve, poor fit], Cc1c(C(=O)NCc2cccc(Br)c2)oc2ccc3c(c12)C(=O)CC(C)(C)O3 70.8 µM [inhibitor, partial curve, poor fit], O=[N+]([O-])c1ccc2c(c1)N([O-])C1(CCCCC1)[N+]2=O 89.1 µM [inhibitor, single point], Cc1ccc(CSc2ncc(Cl)c(C(=O)Nc3nnc(C)s3)n2)cc1 89.1 µM [inhibitor, partial curve, poor fit], COc1cc(O)c(C(=O)c2ccccc2)cc1O 39.8 µM [inhibitor, single point], COc1ccc(-n2ncc3c(=O)n(CC(=O)N4CCCc5ccccc54)cnc32)cc1 89.1 µM [inhibitor, partial curve, poor fit]

Potency, active:
C[C@@H]1O[C@@H](OC[C@H]2O[C@@H](Oc3c(-c4ccc(O)c(O)c4)oc4cc(O)cc(O)c4c3=O)[C@H](O)[C@@H](O)[C@@H]2O)[C@H](O)[C@H](O)[C@H]1O 23.8 µM, C=Cc1c(C)/c2[n-]/c1=C\c1[n-]c(c(CC)c1C)/C=c1\[n-]c3c(c1C)C(=O)C(C(=O)[O-])C=3c1[n-]c(c(C)c1CCC(=O)[O-])\C=2.[Cu].[Na+].[Na+] (stereo not given) 0.891 µM, COc1c(O)cc(O)cc1O 25.1 µM, Cc1ccc(C2CC(=O)Oc3cc4c(cc32)OCO4)cc1 (stereo not given) 44.7 µM, COc1ccc2nc3cc(Cl)ccc3c(Nc3ccc(O)c(CN4CCN(C)CC4)c3)c2c1 79.4 µM, CCCSC1=N/C(=C\c2ccc([N+](=O)[O-])o2)C(=O)S1 20 µM, Oc1cc(O)cc(/C=C/c2ccc(O)c(O)c2)c1 2.82 µM and 31.6 µM and 79.4 µM, Cc1cccc(C(=O)Oc2ccc(/C=N/NC(=O)c3cc(O)cc(O)c3)cc2)c1 50.1 µM, Cc1nc(N=Nc2cc(S(=O)(=O)O)c3cc([N+](=O)[O-])cc(S(=O)(=O)O)c3c2)c(COP(=O)(O)O)c(C=O)c1O 1.41 µM and 3.16 µM and 9.47 µM, O=S(=O)(NCC(O)COCc1ccco1)c1cccs1 (stereo not given) 35.5 µM, CC1=NOC(=O)/C1=C\c1ccc(-c2ccc(Br)cc2C(=O)O)o1 79.4 µM, Oc1ccc(/C=N/Nc2ccnc3cc(Cl)ccc23)c(O)c1O 44.7 µM

activity, negative = inhibition, inactive:
COC(=O)C1CC(=O)c2sccc2C1 (stereo not given) -1.72%, CCCc1nnc(NC(=O)Cc2coc3c(C)c(C)ccc23)s1 0%, COc1ccc(C2C(C(=O)Nc3cccnc3)=C(C)Nc3nc(SCc4ccccc4)nn32)cc1 (stereo not given) -9.18%, COc1ccc(C2/C=C\CN(C(=O)C3CCCCC3)C(C)C(=O)N2Cc2ccc(F)cc2)cc1 (stereo not given) -6.29%, COCCn1c(=O)c(-c2cc(F)cc(F)c2)nc2cnc(N3CCNCC3)nc21 1.68% [at 60.1 µM], CCOC(=O)c1cc(-c2ccc(N3CCOCC3)cc2)nn1-c1ccccc1C(=O)O -15.8%, Cc1ccc2nc(CN3CCN(C(=O)Nc4ccc(C)c(F)c4)CC3)oc2c1 -4.26% [at 60.1 µM], Cc1ccc(F)cc1NC(=O)N1CCN(c2ccnc3cc(Cl)ccc23)CC1 -8.05%, Cc1c(C(=O)N2CCCC2)oc2c1-c1nn(CC(=O)NC(C)c3ccccc3)cc1CC2 (stereo not given) -3.04%, CCN(CC)CCNC(=O)c1ccc(NC(=O)c2ccccc2-c2ccc(C(F)(F)F)cc2)cc1 1.66%, Cc1cc(-c2ccc(S(=O)(=O)N3CCN(C)CC3)s2)on1 2.22%, N#Cc1ccc(-c2ccco2)nc1SCc1ccccc1 -6.93%, Cc1ccc(C(=O)O)cc1NC(=O)c1nsc2ccccc12 -30.6%, COC(=O)c1sc(N2C(=O)c3oc4ccc(C)cc4c(=O)c3C2c2ccc(OC)cc2)nc1C (stereo not given) 7.71%, CCCCC(CC)CO (stereo not given) -14.1%, Fc1ccc(NC(=S)N/N=C/c2cccc(Br)c2)c(F)c1 -1.34%, Ic1ccc(Nc2nc(NCCN3CCOCC3)nc(N3CCCC3)n2)cc1 -23.1%, CCOc1ccccc1CNC(=O)c1ccc(CS(=O)Cc2cccc(Cl)c2)o1 (stereo not given) -1.52%, CCNC(=O)NCc1cccc(Cl)c1 1.66% [at 19.4 µM], Cc1ccc(OCC(=O)Nc2ccccc2C(=O)OCc2cc(=O)n3ccsc3n2)cc1 -14.2% [at 60.1 µM], CCN(CC)c1ccc(CNCCCSc2nnnn2C)cc1 -8.59%, Cc1oc2ncn(C)c(=O)c2c1C(=O)N1CCN(c2cccc(C(F)(F)F)c2)CC1 -2.02%, CCCCc1ccc(N/C(N)=N/c2nc(C)cc(C)n2)cc1 6.19%, Cc1ccc(CNC2CCCCC2)s1 -21.7%
